# Data: PubChem BioAssay AID1159614 (National Center for Advancing Translational Sciences (NCATS), 2016)
# Among all 45,000 compounds or so, about 65 (0.1%) were called active. Calls follow the shape of the dose curve; as a rule, active = well fitted activation curve with a large enough effect; inconclusive = small, poorly fitted or top-dose-only effect; inactive = no such curve, though single readings can be large or run the other way. The list shows a part of the results.
# Target: Galactocerebrosidase (Homo sapiens) (UniProt P54803)
# Assay: A Novel Cell-Based Assay to Identify Small Molecules for B -Galactocerebrosidase; also: 0% is about no effect; nearly all actives have a fitted effect of over 65% in size
# Conditions: 145M-Twi-hGALC-G270D cells (Twitcher mouse brain line with human GALC G270D), HMU-beta-Gal fluorescence, 48 h; series mostly up to 57.5 µM; activation: at the top concentration
# Summary of the method: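 Fluorescence readout: HMU-β-gal cleavage by mutant GALC (0.1 mM final, citrate/phosphate pH 5.2 with 1 mg/mL taurocholate), stopped with carbonate/bicarbonate plus Triton X-100. Cells: murine Twitcher 145M-Twi expressing human G270D GALC; qHTS for activators.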
# UniProt P54803, sequence (P54803 whole entry, looked up): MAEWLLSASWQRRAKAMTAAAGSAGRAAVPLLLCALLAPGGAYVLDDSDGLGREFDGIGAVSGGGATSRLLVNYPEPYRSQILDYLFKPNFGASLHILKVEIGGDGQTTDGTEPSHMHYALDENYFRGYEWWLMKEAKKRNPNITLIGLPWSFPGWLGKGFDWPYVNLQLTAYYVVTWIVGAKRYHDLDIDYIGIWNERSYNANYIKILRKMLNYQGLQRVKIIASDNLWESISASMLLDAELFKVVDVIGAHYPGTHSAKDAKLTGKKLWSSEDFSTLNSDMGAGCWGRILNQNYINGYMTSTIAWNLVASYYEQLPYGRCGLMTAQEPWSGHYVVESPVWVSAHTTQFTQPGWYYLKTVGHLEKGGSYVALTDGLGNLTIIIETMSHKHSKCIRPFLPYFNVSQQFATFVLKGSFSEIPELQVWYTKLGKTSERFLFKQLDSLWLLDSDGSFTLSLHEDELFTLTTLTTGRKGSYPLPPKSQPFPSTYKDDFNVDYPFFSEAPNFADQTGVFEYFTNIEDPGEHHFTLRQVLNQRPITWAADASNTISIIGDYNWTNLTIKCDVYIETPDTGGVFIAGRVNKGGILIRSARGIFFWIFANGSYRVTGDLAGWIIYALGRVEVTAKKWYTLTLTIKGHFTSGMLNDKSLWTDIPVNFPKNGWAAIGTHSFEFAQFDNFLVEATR
row,Structure (SMILES),activation
1,Cc1ccc(NC(=O)c2sc3nc4n(c(=O)c3c2C)CCCCC4)c(Br)c1,inactive: -6.16%
2,CCOc1ccc(NC(=O)C2CCCN(c3nn4cc(-c5ccc(OC)cc5)nc4s3)C2)cc1 (stereo unspecified),inactive: -13.4%
3,O=C(Cn1cnc(S(=O)(=O)N2CCCC2)c1)Nc1cccc(F)c1,inactive: -3.65%
4,Cc1ccccc1OCCCn1c(CCNC(=O)C2CCCCC2)nc2ccccc21,inactive: -21.4%
5,Cc1nc2nc(C)c(NS(=O)(=O)c3ccc(F)cc3)c(=O)n2[nH]1,inactive: -9.33%
6,Oc1c(C(c2ccccc2F)N2CCC3(CC2)OCCO3)sc2nc(-c3ccco3)nn12 (stereo unspecified),inactive: -13.5%
7,CC(=O)c1cccc(NC(=O)C2=CC(c3ccc(F)cc3)=NS(=O)(=O)N2C)c1,inactive: -7.6%
8,CCCCN(C(=O)Nc1ccc(Cl)cc1)C1CCN(C(C)=O)CC1,inactive: -8.3%
9,O=C1CC(c2nc3ccccc3n2CCC2CCCCC2)CN1c1ccccc1Cl (stereo unspecified),inactive: -12%
10,CCCCCCc1c(C)c2c(cc(C)c3c(C)c(C)oc32)oc1=O,inactive: -6.84%
11,Cc1cccc(N2CCN(C(=O)CCCn3c(=O)[nH]c4ccsc4c3=O)CC2)c1C,inactive: -7.99%
12,Cc1ccc(NC(=O)Cn2c(=O)n(CCCC(=O)NCc3ccc4c(c3)OCO4)c(=O)c3ccccc32)cc1,inactive: -1.86%
13,O=C(NC1CCCCC1)c1ccc(CSc2nc3ccncc3n2Cc2ccccc2)cc1,inactive: -2.55%
14,O=C(NCCc1ccccc1)c1ccc(Cn2c(=O)c3cccn3c3cccnc32)cc1,inactive: 2.15%
15,COc1ccc(OC)c(CNC(=O)c2ccc(Sc3ccc(Cl)cc3)c(NC(C)=O)c2)c1,inactive: -35.9%
16,CCN(c1ccc(Cl)cc1)S(=O)(=O)c1nnc(NC(=O)c2ccco2)s1,inactive: -9.04%
17,Cc1ccc2onc(CC(=O)N3CCN(c4ccc(Cl)cc4)CC3)c2c1,inactive: -15%
18,O=C(NC(Cc1cc(=O)[nH]c2ccccc12)C(=O)O)c1ccc(Cl)cc1 (stereo unspecified),inactive: -26.2%
19,CCNS(=O)(=O)c1cc(-c2nnc(Nc3cccc(C(F)(F)F)c3)c3ccccc23)ccc1C,inactive: -7.47%
20,COc1ccc(NC(=O)CN2C(=O)CSc3ccc(S(=O)(=O)N(C)C)cc32)cc1OC,inactive: -16.1%
21,Cc1cc2c(cc1S(=O)(=O)N(CCO)Cc1ccccc1)OCC(=O)N2,inactive: -16%

row,Structure (SMILES),activation
1,CCOc1cc(C2C(C(=O)Nc3ccccc3)=C(C)Nc3ncnn32)cc(Br)c1O (stereo unspecified),inactive: -14.2%
2,Cn1c(=O)oc2cc(S(=O)(=O)N3CCCC(C(=O)N4CCN(c5ccc(Cl)cc5)CC4)C3)ccc21 (stereo unspecified),inactive: -6.46%
3,CCc1ccc2nc(N3CCN(C(=O)c4ccccc4)CC3)sc2c1,inactive: -15.4%
4,Cc1ccc(C)c(N2CCN(C(=O)C3CCN(S(=O)(=O)c4ccc5[nH]c(=O)oc5c4)CC3)CC2)c1,inactive: -14.3%
5,Cc1ccc(NC(=O)Cn2c(CCC(=O)O)ccc2-c2cccs2)cc1Cl,inactive: -17.2%
6,Cc1ccc(C)c(NC(=O)CCS(=O)(=O)c2cccc3nsnc23)c1,inactive: -10.3%
7,CCc1cccc(CC)c1N(COC)C(=O)Cn1c(CC)nc2ccccc21,inactive: -11.4%
8,CCN(CC)S(=O)(=O)c1ccc2c(c1)c(=O)c(C(=O)NCCc1ccc(OC)c(OC)c1)cn2C,inactive: -12.1%
9,CCC(=O)N1CCc2cc(Br)cc(S(=O)(=O)NCc3cccc(OC)c3)c21,inactive: -12.5%
10,Cc1nc2ccn(Cc3ccccc3)c(=O)c2cc1C(=O)Nc1ccc(F)cc1Cl,inactive: -7.79%
11,COC(=O)CNC(c1ccccc1)c1cc(Br)ccc1NC(=O)c1ccc(Cl)cc1 (stereo unspecified),inactive: -20.1%
12,CCOC(=O)c1ccccc1NC(=O)c1c(-c2ccccc2)noc1C,inactive: 1.06%
13,COc1cccc(CN(C(=O)c2oc3ccc(Br)cc3c2C)C2CCS(=O)(=O)C2)c1 (stereo unspecified),inactive: -7%
14,Cc1cc2nc(NC(=O)c3ccc(S(=O)(=O)N4CCOCC4)cc3)sc2cc1C,inactive: 9.81%
15,COc1ccccc1-c1noc(-c2ccc(NCc3ccccc3)c([N+](=O)[O-])c2)n1,inactive: -1.68%
16,CCN(CC)C(=O)CSc1nc(-c2ccccc2)cc(-c2ccc(OC)cc2)c1C#N,inactive: -9.55%
17,Cc1ccc(C)c(NC(=O)CCc2nc3cccnc3n2Cc2cccs2)c1,inactive: -7.35%
18,Cc1ccc(-c2cc(N)n(Cc3cccc(Cl)c3)n2)cc1,inactive: -11.7%
19,Cc1ccccc1-c1ccnc2c(-c3ccc(F)cc3)c(C)nn12,inactive: 1.59%
20,COc1cccc(NC(=O)Cn2c(=O)n(-c3ccccc3)c(=O)c3c4c(sc32)CCCC4)c1,inactive: -1.73%
21,COc1ccc(N2Cc3cccc(C(=O)Nc4ccc(C)cc4)c3C2=O)cc1,inactive: -7.88%

row,Structure (SMILES),activation
1,CCOC(=O)c1sc2ccccc2c1S(=O)(=O)N1CCN(c2ccccc2F)CC1,inactive: -9.72%
2,COc1ccc(C)cc1NC(=O)CN1C(=O)CSc2ccc(S(=O)(=O)N3CCCC3)cc21,inactive: -5.89%
3,CC1=C(c2cccc(Cl)c2)S(=O)(=O)NC1=NCc1ccccc1C,inactive: -7.04%
4,CCC(=O)N1CCc2cc(S(=O)(=O)N3CCN(c4ccccc4F)CC3)ccc21,inactive: -16.1%
5,COc1cc(OC)c(NC(=O)Cn2nc(C)n3cccc3c2=O)cc1Cl,inactive: -10.2%
6,CCOc1ccc(NC(=O)Nc2cccc(C)n2)cc1,inactive: -13.9%
7,Cc1ccc(-n2nc3c(N4CCC(C(=O)NCCc5ccccc5)CC4)nnc(C)c3c2C)cc1,inactive: -1.86%
8,COCCCN1CN=C(NS(=O)(=O)c2ccc(NC(C)=O)cc2)NC1,inactive: -3.16%
9,COc1ccc(C)cc1NC(=O)CN(C)S(=O)(=O)c1ccc2c(c1)CCCN2C(C)=O,inactive: -11.4%
10,Cc1ccccc1Cn1cnc2c(oc3ccccc32)c1=O,inactive: 6.4%
11,CCC(=O)N1CCc2cc(CNC(=O)Cc3ccc(OC)c(OC)c3)ccc21,inactive: -14.1%
12,CC1=Nc2cc(C(=O)NC3CCC(C)CC3)ccc2Sc2c(C)ccc(C)c21 (stereo unspecified),inactive: -8.07%
13,COc1cc(C(=O)N2CCc3c([nH]c4ccccc34)C2c2ccc(F)cc2)cc(OC)c1OC (stereo unspecified),inactive: -4.85%
14,COC(=O)c1ccc(Nc2nc(-c3ccc(C)cc3)nc3ccccc23)cc1,inactive: -12.6%
15,COc1ccc(-c2cn3nc(N4CCC(C(=O)NCc5cccc(Cl)c5)CC4)sc3n2)cc1,inactive: -0.0882%
16,COc1cc(-c2noc(-c3ccc(N4CCCC4)c([N+](=O)[O-])c3)n2)cc(OC)c1OC,inactive: -4.02%
17,CC(=O)N1CCc2c(sc3c2c(=O)n(Cc2ccccc2)c(=O)n3Cc2cccc(Cl)c2)C1,inactive: -16.8%
18,Cc1ccc(-n2nc(C(=O)NCc3ccc(F)cc3Cl)c3c4ccccc4n(C)c3c2=O)cc1,inactive: -5.88%
19,FC(F)(F)c1ccc2c(c1)ncc1c(-c3ccccc3)nn(-c3ccccc3)c12,inactive: 0.531%
